Laboratory results: the supplement of paper PMC3334620
In all, about 33,000 sequences were measured (“E-score (-0.5 to 0.5)”: median about -0.056, highest 2% from about 0.38 on). This is one part of the list.

What follows are sequences tested against Stb4 (UniProt P50104) (assay: PBM E-score (8-mer binding enrichment) (E-score (-0.5 to 0.5)); higher = stronger / more preferred TF binding; most listed sequences are background and not binding sites). Settings: protein concentration: 200 nM; construct: GST-DNA-binding domain.
Method in brief: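 Universal all-10-mer Agilent arrays, double-stranded by primer extension on fresh or once-stripped slides, were probed with about 100-200 nM GST-tagged yeast transcription factors made by PURExpress. Fluorescent anti-GST detected bound protein, and masliner normalised the scans. E-scores from the Universal PBM Analysis Suite were given to each ungapped eight-base word pooled with its reverse complement.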

| Sequence | PBM E-score |
| --- | --- |
| GTCCCGAA | 0.406 |
| ACCGGGTA | 0.381 |
| AAATATCT | 0.0386 |
| CAGCATGA | -0.235 |
| CCATCATC | -0.0258 |
| AACGCTAG | -0.0743 |
| ACGTCTCT | -0.0846 |
| CGATGTCA | -0.0953 |
| TCCAGGCA | -0.203 |
| AGAACGAG | -0.128 |
| CCGAGCCA | 0.407 |
| AAGTGATC | -0.0657 |
| CTCGGTCA | 0.258 |
| TCAGGAAA | -0.248 |
| ATATTGGA | -0.0099 |
| GATTACGC | -0.0242 |
| TAGTGGGA | -0.0408 |
| ACCCGGGG | 0.254 |
| AGCGAAAG | -0.193 |
| AGACAATA | -0.123 |
| ACCGCTAA | 0.0108 |
| CATTATCA | -0.211 |
| GCGAGAGC | 0.0542 |
| AATTTAAT | 0.0138 |
| AATTTGCT | -0.0945 |

| Sequence | PBM E-score |
| --- | --- |
| CAAATGCA | -0.226 |
| GCAAATGA | -0.234 |
| CGAAAGAG | -0.0204 |
| TAGTATGA | -0.147 |
| ACATAGGT | -0.359 |
| GCATCATA | -0.141 |
| GACCAACA | -0.0334 |
| ATAGAAGA | -0.11 |
| TCATAGAA | -0.0472 |
| GACGATAC | -0.0335 |
| AGAGCCCC | -0.0505 |
| CCACATAC | -0.1 |
| ACACTTGA | -0.222 |
| GAAAGTAC | 0.209 |
| AGAGCGAG | -0.121 |
| CCTACGCC | -0.243 |
| GTAGACGA | -0.216 |
| ACACACCA | -0.169 |
| ATCACGCC | -0.0303 |
| GAGAACAC | -0.0355 |
| CGCCATAA | -0.0429 |
| GAACCACA | -0.0151 |
| TCGAAGCA | -0.0986 |
| ATAAGTCC | -0.0143 |
| ACCCAGAT | -0.0868 |

| Sequence | PBM E-score |
| --- | --- |
| CGGACGTC | 0.14 |
| GACGTGAC | -0.254 |
| GGAGCGAA | -0.00881 |
| ATGGCATC | -0.0882 |
| AGATTTCA | -0.114 |
| ATCTATTC | -0.0366 |
| GTATTTGA | -0.144 |
| TATTAAGA | -0.127 |
| CGTCGCAC | 0.0436 |
| ACGGGATG | 0.146 |
| CCTGTTCC | 0.0703 |
| GGGCAGTA | 0.00283 |
| GGGTCACA | -0.0305 |
| CGGTACGC | 0.221 |
| AACTGCTA | -0.222 |
| GAAAGCGA | 0.0337 |
| GATCTAGA | -0.0828 |
| ACATCCAT | -0.113 |
| AACTAAGA | 0.0142 |
| AGCCTCTG | -0.291 |
| CCCAAAGA | -0.0964 |
| CAGGTGTC | -0.0286 |
| TACGGACA | -0.0114 |
| AGAATGTC | -0.248 |
| ATCTTGTA | -0.0999 |

| Sequence | PBM E-score |
| --- | --- |
| ACACAATA | -0.0748 |
| TACACGCA | -0.314 |
| TAAGCCAA | -0.239 |
| GACAGTGA | -0.118 |
| GAAGATGC | 0.0662 |
| ACGCGGTG | -0.136 |
| AATACAAA | 0.119 |
| AAGGGCTG | -0.214 |
| CCGATATC | 0.297 |
| CGCCAAAC | -0.0186 |
| GAACCTAA | 0.105 |
| GGAGGGAA | -0.0175 |
| CAGACAGG | -0.201 |
| CCTATACC | 0.0471 |
| AGATTGGA | -0.0892 |
| GGCGATCA | -0.0874 |
| CATTGCAA | -0.194 |
| TAAAGCAA | -0.174 |
| CTCGCCCA | -0.0959 |
| AGGACGAA | 0.0412 |
| AATGCCGT | 0.277 |
| CGCAGTAG | -0.0294 |
| CATGAGCC | -0.197 |
| AATCACTA | -0.0272 |
| ATTGGGGA | -0.245 |

| Sequence | PBM E-score |
| --- | --- |
| TGCAGCCA | -0.125 |
| CTAGTGAC | -0.247 |
| AGCCTTCA | -0.0983 |
| AATTGCCA | -0.103 |
| CCATAGCG | -0.222 |
| ATTGTCCG | 0.262 |
| CGCATCGA | -0.0473 |
| AACACCTC | -0.185 |
| AGCCAGCT | -0.222 |
| TATCACCA | -0.158 |
| GGTACAAA | 0.0208 |
| CTCGATGA | -0.0395 |
| CTAGAGGC | -0.321 |
| CCGTCTCG | 0.264 |
| GTGCCGGA | 0.37 |
| GCTTAACC | -0.0848 |
| AACCACTA | -0.229 |
| GAGTAAGA | -0.0951 |
| GGACGGGA | 0.181 |
| AGTGACGC | -0.0102 |
| AATATGAT | -0.0156 |
| GTTCCTGA | -0.0759 |
| CGCTTTTA | 0.0375 |
| ATCACGGC | 0.131 |
| AGTGCAGC | 0.0482 |

| Sequence | PBM E-score |
| --- | --- |
| ACGATCGA | -0.19 |
| AACTTGCT | -0.0328 |
| TATTCCGA | 0.462 |
| CGCATAAC | -0.113 |
| ATTACGTC | -0.0695 |
| TACTGCAA | -0.0607 |
| ACCTGGAG | -0.148 |
| GCTCGACA | -0.311 |
| CAGGCCTC | -0.141 |
| CGAAACAC | 0.0594 |
| GACTTCCC | 0.0994 |
| AACAAGGC | -0.149 |
| CACGATTC | 0.0694 |
| GGCATAAC | -0.107 |
| AACATGGG | -0.0372 |
| CTGTCGGA | 0.353 |
| ACACGTGG | -0.239 |
| AGATGCTA | -0.111 |
| AAATGCAT | -0.0657 |
| ATGACAGG | -0.22 |
| ACAAGTCA | -0.247 |
| ACCCTTGG | -0.208 |
| TCCAGCCA | -0.321 |
| AGCAAGGC | -0.0869 |
| CCAATCGC | -0.153 |

| Sequence | PBM E-score |
| --- | --- |
| TACAGTGA | -0.308 |
| TGCAGGCA | -0.208 |
| CGCTCAAC | -0.11 |
| AGCAGGAT | -0.198 |
| ACCCCCGC | 0.0869 |
| ACATTCGA | 0.0103 |
| ATAATAAT | -0.0296 |
| GTTGGGAA | 0.0755 |
| GAACAGAC | 0.134 |
| GGGATATA | 0.168 |
| AGCCGGGC | 0.166 |
| ATGTTTAC | -0.113 |
| CACGTCAG | -0.212 |
| ATAACTAA | -0.0748 |
| CGTAGGAG | 0.0593 |
| ACTGGTCC | 0.136 |
| GGAGGTGA | -0.0309 |
| TCCATCAA | -0.0134 |
| AAACCTTG | -0.347 |
| GGCTGCAC | 0.107 |
| GGCATTAA | 0.0712 |
| GATGCTTA | -0.00303 |
